Whole data set: some 33,000 sequences, median “E-score (-0.5 to 0.5)” near -0.035, cut for the highest 2% near 0.34. Some of the results follow.
molecular target: T1, Mot3 (UniProt P54785); test: PBM E-score (8-mer binding enrichment) (E-score (-0.5 to 0.5)); higher = stronger / more preferred TF binding; most listed sequences are background and not binding sites; conditions: protein concentration: 200 nM; construct: GST-full length
T1 sequence: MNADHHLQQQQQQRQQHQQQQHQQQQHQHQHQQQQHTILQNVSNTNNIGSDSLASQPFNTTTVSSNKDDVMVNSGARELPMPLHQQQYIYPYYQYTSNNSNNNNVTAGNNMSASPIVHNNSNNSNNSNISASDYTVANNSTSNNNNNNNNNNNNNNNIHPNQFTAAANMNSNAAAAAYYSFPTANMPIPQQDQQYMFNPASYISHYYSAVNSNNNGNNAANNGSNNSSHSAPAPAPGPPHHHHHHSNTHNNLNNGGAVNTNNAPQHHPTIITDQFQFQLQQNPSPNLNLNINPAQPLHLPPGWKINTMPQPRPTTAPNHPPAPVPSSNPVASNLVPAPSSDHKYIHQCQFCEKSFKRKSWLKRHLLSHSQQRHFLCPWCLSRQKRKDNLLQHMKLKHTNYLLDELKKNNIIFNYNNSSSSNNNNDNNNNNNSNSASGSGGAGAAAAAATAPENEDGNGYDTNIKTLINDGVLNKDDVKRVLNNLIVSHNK
Description: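 Universal 'all 10-mer' protein binding microarrays (Agilent AMADID 015681) probed with GST-tagged S. cerevisiae TFs (full-length or DBD) made by in vitro transcription/translation (PURExpress), about 100-200 nM. Bound TF was detected with fluorescent anti-GST. Each ungapped 8-mer (which stands for itself and its reverse complement) is scored by the PBM enrichment score (E-score), a modified Wilcoxon-Mann-Whitney statistic from -0.5 to +0.5, computed with the Universal PBM Analysis Suite. Scale: above 0.35 generally sequence-specific binding.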

| Sequence | PBM E-score |
| --- | --- |
| ATTACAGG | 0.359 |
| ATGACAGA | 0.0811 |
| AACTACGT | 0.191 |
| GTTAGCCA | -0.136 |
| ACATATAA | 0.275 |
| CGCAATAA | 0.025 |
| ATGTGTGC | 0.0138 |
| CTTGCGGA | -0.223 |
| TAGTGCAA | 0.0916 |
| CATAACGA | -0.0195 |
| AAGGGAAC | -0.0894 |
| ACGGCCGT | -0.211 |
| GGACCGAA | 0.0614 |
| ATCTAAGA | -0.0648 |
| ACGTAACA | 0.262 |
| GAGGGACC | -0.298 |
| CTTAAGTC | -0.081 |
| CAAATCGC | -0.211 |
| CAACAGCG | -0.106 |
| AACGCCCT | 0.00584 |
| ACGCTCGG | -0.194 |
| CGGAGGAG | -0.0709 |
| ATTATACA | 0.215 |
| CCGAACCG | -0.103 |
| AGCGACAT | 0.158 |

| Sequence | PBM E-score |
| --- | --- |
| AAAACGAT | 0.0399 |
| CAAGGAGA | -0.116 |
| AGTTGGTC | -0.0907 |
| ATTCGAAA | -0.0272 |
| GGATGCAC | -0.183 |
| GCCGGCAC | -0.00786 |
| GGGGCCAC | -0.443 |
| CCGTGCCA | -0.255 |
| GGCAAAAC | 0.075 |
| CACGAAAC | 0.103 |
| TCATCCGA | -0.0862 |
| ACGATATA | 0.147 |
| CACAGAAG | -0.00641 |
| CCTCCAAC | -0.0141 |
| ATATAAGC | -0.111 |
| TAATGGGA | -0.123 |
| ACATGCTC | 0.293 |
| TAGCAGCA | -0.149 |
| CCGACGCG | -0.13 |
| GAAATTTA | 0.165 |
| ATAAAAGG | 0.069 |
| TCTATTAA | 0.0827 |
| AGTCCAAG | -0.0471 |
| GGAAAGAC | -0.0213 |
| GCAATACC | 0.202 |

| Sequence | PBM E-score |
| --- | --- |
| GCTGGTGA | -0.0211 |
| CCTAAGCG | -0.0682 |
| AGGACAAC | -0.00249 |
| GCGACCTA | -0.0836 |
| GGAAGAAC | 0.0589 |
| AATGTCGA | 0.15 |
| CGTTCGAG | 0.155 |
| ACCACGGC | -0.108 |
| AGGAGTCA | -0.105 |
| CGACGACA | -0.0456 |
| ATCCTCCA | -0.1 |
| CTATAGGA | 0.093 |
| TCTGTTCA | -0.014 |
| GCTGTGAC | -0.128 |
| ACGACTAC | 0.111 |
| CTACTACA | 0.247 |
| CGATTGAG | -0.267 |
| ACTATGAG | -0.173 |
| GAATTATA | 0.0628 |
| CAACAGTG | -0.0633 |
| ACACCCCA | -0.0411 |
| AAATGCGA | -0.0132 |
| GGCGACGA | -0.101 |
| TTCATAAA | -0.151 |
| ACAGGAAC | 0.466 |

| Sequence | PBM E-score |
| --- | --- |
| CGGGCTTC | -0.251 |
| CCGCCTCG | -0.0851 |
| AGGTTGTA | 0.248 |
| ACCCACGG | -0.199 |
| ACGTGGCA | 0.0363 |
| ACACTACG | 0.143 |
| CAATTGTC | -0.161 |
| AGTGTCGA | -0.198 |
| GACTTATA | -0.00534 |
| GCATTGTA | 0.243 |
| ATCTCGGA | -0.221 |
| GGTGACTA | 0.138 |
| CCTGATGC | 0.0872 |
| AACCCATT | -0.0634 |
| ACGGCTAG | -0.175 |
| CGGCCAGA | -0.322 |
| ACTGTATG | -0.061 |
| CGTACGGC | -0.232 |
| ATATAACG | 0.102 |
| CAATATAA | 0.0511 |
| TGCGAGCA | -0.177 |
| CGTGTAGA | 0.414 |
| CACGTCAC | -0.0083 |
| GGGATCCA | -0.256 |
| CCCGAGAA | -0.146 |

| Sequence | PBM E-score |
| --- | --- |
| ATTGAACA | 0.184 |
| ATACCCAG | -0.244 |
| AGGTGACG | 0.0754 |
| AAGAGTCG | 0.00387 |
| ATATGAGG | -0.235 |
| ATTGTCGC | -0.0729 |
| CGCGCGTC | 0.0273 |
| CGCAGCGA | -0.212 |
| CGCAGGCC | 0.123 |
| GAAACGGA | -0.122 |
| CGAAGCCC | -0.112 |
| GGCCACAA | -0.163 |
| AAGCAGTG | 0.0592 |
| CGGCTAAG | -0.249 |
| CTCGAGGC | 0.0765 |
| AAAGCTAG | -0.114 |
| CCGGCACG | -0.0224 |
| GGGTCCCA | -0.183 |
| CCCCGCAG | -0.165 |
| ACGAAAAA | 0.097 |
| CCTCTATA | -0.0637 |
| AGAATTAT | -0.0236 |
| ACGTCGGA | -0.0848 |
| ACAGCTGA | -0.0621 |
| ACCAACCC | -0.0689 |

| Sequence | PBM E-score |
| --- | --- |
| CTGTGCCA | -0.106 |
| CGCTCCCG | -0.144 |
| CGCGCCGC | -0.0135 |
| CATGGACG | 0.00506 |
| GGAGCTGA | -0.108 |
| ACTGCTCC | -0.264 |
| AGTCGGGC | 0.0557 |
| CTAAGCTA | -0.208 |
| AAGTCACC | 0.0807 |
| CTTCCTCC | -0.236 |
| AGGTTCAG | -0.065 |
| CTTAAAAA | 0.0623 |
| AACGCGTG | 0.267 |
| AAATCAGG | 0.127 |
| CCAGAGGA | -0.253 |
| ACACGAGG | 0.266 |
| CCGAACGC | -0.115 |
| GATGGTCA | -0.226 |
| AAGGGTAA | -0.0154 |
| GAATGGAA | 0.0423 |
| GGATCGGA | 0.0257 |
| TGCAAGAA | 0.202 |
| CCTCCGAG | -0.153 |
| CTGAACAA | 0.199 |
| CTTAGATC | 0.0918 |

| Sequence | PBM E-score |
| --- | --- |
| CGAAATCG | -0.165 |
| AGGAGTCC | -0.169 |
| ATGGGTGC | 0.0983 |
| CTTCGTGA | 0.0492 |
| AGCACACA | 0.041 |
| CTGCACAA | 0.111 |
| CAACCGAC | 0.0207 |
| AGGATCTC | -0.222 |
| AAACACTC | -0.052 |
| AAGCAGGC | 0.173 |
| CTGTTCCA | -0.0726 |
| GACTGTTA | -0.0148 |
| TCTGCACA | 0.0104 |
| CCGAGTTA | -0.022 |
| ACCCGGCT | -0.0639 |
| GACGGCCC | -0.383 |
| TCGGCACA | -0.25 |
| ATCATCCG | -0.194 |
| CCTGCGCG | 0.123 |
| CCGCCTCA | -0.184 |
| CATCCTTA | 0.0873 |
| AGAAGGGG | -0.228 |

From the supplement of paper PMC3334620
